# Results as given in article PMC5400511.
# Chains of the proteins cited; added tags and fusions are not shown.
# UniProt Q04656: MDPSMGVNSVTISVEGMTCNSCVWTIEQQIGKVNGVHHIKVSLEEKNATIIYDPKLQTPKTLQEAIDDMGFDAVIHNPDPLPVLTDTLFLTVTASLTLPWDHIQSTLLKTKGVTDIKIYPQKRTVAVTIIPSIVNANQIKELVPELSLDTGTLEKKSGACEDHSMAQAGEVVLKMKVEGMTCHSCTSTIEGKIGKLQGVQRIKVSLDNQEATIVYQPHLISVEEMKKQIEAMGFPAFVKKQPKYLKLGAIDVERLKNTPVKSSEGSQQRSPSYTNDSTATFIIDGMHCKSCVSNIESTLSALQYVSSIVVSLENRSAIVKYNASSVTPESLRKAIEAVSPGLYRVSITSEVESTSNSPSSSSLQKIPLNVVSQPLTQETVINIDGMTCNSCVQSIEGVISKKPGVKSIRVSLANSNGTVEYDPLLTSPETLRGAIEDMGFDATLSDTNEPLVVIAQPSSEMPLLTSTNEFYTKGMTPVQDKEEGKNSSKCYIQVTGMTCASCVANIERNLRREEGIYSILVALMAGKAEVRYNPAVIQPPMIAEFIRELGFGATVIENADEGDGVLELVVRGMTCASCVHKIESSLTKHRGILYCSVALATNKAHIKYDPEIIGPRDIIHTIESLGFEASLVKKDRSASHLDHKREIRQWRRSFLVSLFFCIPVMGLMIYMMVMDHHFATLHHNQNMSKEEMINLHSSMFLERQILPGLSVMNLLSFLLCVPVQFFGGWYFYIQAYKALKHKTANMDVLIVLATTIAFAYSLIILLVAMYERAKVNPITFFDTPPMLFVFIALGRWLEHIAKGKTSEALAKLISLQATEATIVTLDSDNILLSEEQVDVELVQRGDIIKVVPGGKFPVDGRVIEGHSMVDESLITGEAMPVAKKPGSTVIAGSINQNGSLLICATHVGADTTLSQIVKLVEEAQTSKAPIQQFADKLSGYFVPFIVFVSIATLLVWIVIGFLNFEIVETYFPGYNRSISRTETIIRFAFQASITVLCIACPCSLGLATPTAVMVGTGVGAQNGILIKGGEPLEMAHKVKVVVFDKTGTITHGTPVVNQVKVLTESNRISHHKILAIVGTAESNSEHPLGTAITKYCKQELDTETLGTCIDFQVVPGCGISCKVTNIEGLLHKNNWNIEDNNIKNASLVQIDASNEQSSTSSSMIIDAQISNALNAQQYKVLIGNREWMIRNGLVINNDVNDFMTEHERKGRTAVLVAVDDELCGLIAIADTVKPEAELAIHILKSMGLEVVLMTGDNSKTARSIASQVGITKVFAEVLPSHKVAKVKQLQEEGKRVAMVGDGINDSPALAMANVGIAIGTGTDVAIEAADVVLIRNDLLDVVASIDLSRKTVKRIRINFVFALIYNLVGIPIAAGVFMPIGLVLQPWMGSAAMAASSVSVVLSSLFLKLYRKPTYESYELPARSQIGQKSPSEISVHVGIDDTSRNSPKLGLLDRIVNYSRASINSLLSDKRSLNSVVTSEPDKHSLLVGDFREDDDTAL
# UniProt Q96N67: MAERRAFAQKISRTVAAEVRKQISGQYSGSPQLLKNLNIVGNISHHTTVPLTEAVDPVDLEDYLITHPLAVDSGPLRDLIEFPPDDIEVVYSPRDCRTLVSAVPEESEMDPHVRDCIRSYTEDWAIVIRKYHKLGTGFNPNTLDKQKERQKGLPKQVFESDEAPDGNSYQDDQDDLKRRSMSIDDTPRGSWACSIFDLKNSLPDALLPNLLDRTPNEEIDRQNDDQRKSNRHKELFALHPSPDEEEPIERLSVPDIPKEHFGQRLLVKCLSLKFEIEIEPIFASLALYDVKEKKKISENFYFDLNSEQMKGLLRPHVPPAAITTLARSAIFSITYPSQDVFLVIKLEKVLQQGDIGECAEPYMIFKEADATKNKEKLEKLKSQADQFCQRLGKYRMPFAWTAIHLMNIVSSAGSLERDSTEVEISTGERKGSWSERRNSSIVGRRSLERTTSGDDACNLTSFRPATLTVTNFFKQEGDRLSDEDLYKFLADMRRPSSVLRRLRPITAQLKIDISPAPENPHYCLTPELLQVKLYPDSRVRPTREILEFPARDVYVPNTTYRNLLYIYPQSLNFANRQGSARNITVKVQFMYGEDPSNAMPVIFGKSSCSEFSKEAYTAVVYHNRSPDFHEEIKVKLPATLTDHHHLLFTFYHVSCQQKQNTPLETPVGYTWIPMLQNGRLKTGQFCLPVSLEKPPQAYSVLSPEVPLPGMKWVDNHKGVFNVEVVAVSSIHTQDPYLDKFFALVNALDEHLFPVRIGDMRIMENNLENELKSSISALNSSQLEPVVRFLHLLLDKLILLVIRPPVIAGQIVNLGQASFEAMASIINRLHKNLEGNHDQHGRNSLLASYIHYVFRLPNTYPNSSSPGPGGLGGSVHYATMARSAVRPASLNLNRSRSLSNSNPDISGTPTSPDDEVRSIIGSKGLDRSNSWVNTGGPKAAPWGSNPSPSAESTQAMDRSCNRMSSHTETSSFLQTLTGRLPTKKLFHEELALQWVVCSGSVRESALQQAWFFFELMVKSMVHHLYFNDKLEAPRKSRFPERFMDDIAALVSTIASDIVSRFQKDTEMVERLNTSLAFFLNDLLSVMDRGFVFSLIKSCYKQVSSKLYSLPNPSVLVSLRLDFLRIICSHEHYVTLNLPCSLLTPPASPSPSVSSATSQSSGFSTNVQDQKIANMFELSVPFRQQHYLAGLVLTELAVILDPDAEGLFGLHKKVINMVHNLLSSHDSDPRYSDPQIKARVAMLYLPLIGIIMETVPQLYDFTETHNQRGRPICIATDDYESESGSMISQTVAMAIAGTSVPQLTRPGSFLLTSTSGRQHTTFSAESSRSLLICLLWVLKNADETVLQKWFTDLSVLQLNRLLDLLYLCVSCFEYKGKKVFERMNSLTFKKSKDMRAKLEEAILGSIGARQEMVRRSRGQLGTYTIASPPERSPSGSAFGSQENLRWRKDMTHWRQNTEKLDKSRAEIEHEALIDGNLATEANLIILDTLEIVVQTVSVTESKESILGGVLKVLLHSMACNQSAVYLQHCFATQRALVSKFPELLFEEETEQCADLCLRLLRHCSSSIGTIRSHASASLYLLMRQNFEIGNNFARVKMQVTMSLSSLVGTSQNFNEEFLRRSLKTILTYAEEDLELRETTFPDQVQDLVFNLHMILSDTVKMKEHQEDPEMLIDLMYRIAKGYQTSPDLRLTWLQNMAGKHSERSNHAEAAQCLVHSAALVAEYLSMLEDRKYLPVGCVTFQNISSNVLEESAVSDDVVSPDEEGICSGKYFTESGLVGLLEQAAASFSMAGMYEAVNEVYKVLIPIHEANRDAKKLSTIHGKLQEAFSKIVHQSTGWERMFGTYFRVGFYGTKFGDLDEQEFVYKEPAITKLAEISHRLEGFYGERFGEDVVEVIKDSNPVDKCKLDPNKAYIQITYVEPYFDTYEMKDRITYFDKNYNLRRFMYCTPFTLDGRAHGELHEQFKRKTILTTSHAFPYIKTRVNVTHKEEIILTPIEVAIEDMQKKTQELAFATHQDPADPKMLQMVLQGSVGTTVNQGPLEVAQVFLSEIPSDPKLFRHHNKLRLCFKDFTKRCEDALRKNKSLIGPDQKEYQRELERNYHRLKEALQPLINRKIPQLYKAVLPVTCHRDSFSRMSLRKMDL
# UniProt P19838: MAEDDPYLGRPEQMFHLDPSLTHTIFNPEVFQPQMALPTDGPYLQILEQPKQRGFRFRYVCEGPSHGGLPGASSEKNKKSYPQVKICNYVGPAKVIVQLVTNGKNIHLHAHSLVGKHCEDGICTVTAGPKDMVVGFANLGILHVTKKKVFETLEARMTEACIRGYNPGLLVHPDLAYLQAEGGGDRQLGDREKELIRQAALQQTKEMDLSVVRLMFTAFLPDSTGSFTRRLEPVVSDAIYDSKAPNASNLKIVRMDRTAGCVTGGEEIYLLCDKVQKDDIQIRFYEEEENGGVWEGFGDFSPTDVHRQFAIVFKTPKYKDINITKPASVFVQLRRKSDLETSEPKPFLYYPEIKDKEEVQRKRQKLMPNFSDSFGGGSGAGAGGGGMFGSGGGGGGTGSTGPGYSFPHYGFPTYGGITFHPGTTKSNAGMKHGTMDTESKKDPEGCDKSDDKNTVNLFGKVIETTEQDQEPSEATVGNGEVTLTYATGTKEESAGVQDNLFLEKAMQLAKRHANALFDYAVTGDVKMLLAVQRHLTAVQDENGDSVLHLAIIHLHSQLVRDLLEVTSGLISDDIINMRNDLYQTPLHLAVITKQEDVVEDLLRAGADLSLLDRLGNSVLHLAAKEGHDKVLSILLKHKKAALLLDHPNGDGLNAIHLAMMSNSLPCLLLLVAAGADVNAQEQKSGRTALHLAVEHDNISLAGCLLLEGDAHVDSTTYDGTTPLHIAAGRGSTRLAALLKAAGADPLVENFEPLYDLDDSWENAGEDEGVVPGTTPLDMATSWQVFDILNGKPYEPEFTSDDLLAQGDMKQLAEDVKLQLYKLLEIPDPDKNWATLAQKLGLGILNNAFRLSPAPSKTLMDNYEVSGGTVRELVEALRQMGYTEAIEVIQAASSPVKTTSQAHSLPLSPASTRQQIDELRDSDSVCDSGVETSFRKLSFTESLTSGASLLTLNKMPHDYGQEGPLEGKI
# UniProt P46459: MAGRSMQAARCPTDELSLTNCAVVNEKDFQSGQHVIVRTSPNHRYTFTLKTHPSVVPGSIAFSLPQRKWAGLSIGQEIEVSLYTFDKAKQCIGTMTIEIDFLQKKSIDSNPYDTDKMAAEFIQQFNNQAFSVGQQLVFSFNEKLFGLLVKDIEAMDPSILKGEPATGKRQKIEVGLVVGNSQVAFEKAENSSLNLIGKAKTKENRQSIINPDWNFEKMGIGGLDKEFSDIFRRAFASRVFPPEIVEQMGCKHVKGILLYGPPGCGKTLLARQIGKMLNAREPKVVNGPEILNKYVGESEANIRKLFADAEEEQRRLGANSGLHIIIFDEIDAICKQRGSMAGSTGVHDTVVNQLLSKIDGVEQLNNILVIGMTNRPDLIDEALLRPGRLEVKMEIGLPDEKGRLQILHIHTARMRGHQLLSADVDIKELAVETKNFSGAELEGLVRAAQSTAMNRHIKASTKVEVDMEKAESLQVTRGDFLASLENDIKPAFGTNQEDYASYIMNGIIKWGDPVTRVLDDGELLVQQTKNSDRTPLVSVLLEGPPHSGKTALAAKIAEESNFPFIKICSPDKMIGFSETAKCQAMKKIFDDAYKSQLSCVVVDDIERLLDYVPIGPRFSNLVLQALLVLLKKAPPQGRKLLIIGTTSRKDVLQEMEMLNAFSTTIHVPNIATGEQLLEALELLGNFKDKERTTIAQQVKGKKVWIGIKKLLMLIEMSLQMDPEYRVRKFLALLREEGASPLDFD
# Where two headings read alike, the source gives them in different places. These are yes or no findings as the source states them, for the method shown. Binding seen in cells or lysates may run through a third protein. Some binding calls cover weakened binding; strength is not graded here.
# Legend:
# [1] = molecular target: ATP7A (human (endogenous in SH-SY5Y)) (UniProt Q04656); assay: co-IP; SH-SY5Y cells cross-linked with DSP (also after BCS or CuCl2 pre-treatment), lysed in buffer A with 0.5% Triton X-100; ATP7A immunoprecipitated with monoclonal antibody on Dynal magnetic beads, 2 hr at 4°C; control with 22 uM antigenic ATP7A peptide; immunoblot
# [2] = molecular target: ATP7A (human (endogenous in SH-SY5Y)) (UniProt Q04656); assay: as above; remark: listed apart in the source
Molecule,binding [1],binding [2]
DOCK7 (from UniProt Q96N67 1-2140),binds,
"thioredoxin (protein, UniProt P10599 1-105) MVKQIESKTAFQEALDAAGDKLVVVDFSATWCGPCKMIKPFFHSLSEKYSNVIFLEVDVDDCQDVASECEVKCMPTFQFFKKGQKVGEFSGANKEKLEATINELV",,no binding
"dopamine beta hydroxylase (protein, UniProt P09172 1-617) MPALSRWASLPGPSMREAAFMYSTAVAIFLVILVAALQGSAPRESPLPYHIPLDPEGSLELSWNVSYTQEAIHFQLLVRRLKAGVLFGMSDRGELENADLVVLWTDGDTAYFADAWSDQKGQIHLDPQQDYQLLQVQRTPEGLTLLFKRPFGTCDPKDYLIEDGTVHLVYGILEEPFRSLEAINGSGLQMGLQRVQLLKPNIPEPELPSDACTMEVQAPNIQIPSQETTYWCYIKELPKGFSRHHIIKYEPIVTKGNEALVHHMEVFQCAPEMDSVPHFSGPCDSKMKPDRLNYCRHVLAAWALGAKAFYYPEEAGLAFGGPGSSRYLRLEVHYHNPLVIEGRNDSSGIRLYYTAKLRRFNAGIMELGLVYTPVMAIPPRETAFILTGYCTDKCTQLALPPSGIHIFASQLHTHLTGRKVVTVLVRDGREWEIVNQDNHYSPHFQEIRMLKKVVSVHPGDVLITSCTYNTEDRELATVGGFGILEEMCVNYVHYYPQTQLELCKSAVDAGFLQKYFHLINRFNNEDVCTCPQASVSQQFTSVPWNSFNRDVLKALYSFAPISMHCNKSSAVRFQGEWNLQPLPKVISTLEEPTPQCPTSQGRSPAGPTVVSIGGGKG",,binds

# Second part, the molecule after the results:
binding [1],binding [2],Molecule
binds,,NFKB1 (from UniProt P19838 1-968)
binds,,NSF (from UniProt P46459 1-744)
,binds,"GIGYF2/PARK11 (protein, UniProt Q6Y7W6 1-1299) MAAETQTLNFGPEWLRALSSGGSITSPPLSPALPKYKLADYRYGREEMLALFLKDNKIPSDLLDKEFLPILQEEPLPPLALVPFTEEEQRNFSMSVNSAAVLRLTGRGGGGTVVGAPRGRSSSRGRGRGRGECGFYQRSFDEVEGVFGRGGGREMHRSQSWEERGDRRFEKPGRKDVGRPNFEEGGPTSVGRKHEFIRSESENWRIFREEQNGEDEDGGWRLAGSRRDGERWRPHSPDGPRSAGWREHMERRRRFEFDFRDRDDERGYRRVRSGSGSIDDDRDSLPEWCLEDAEEEMGTFDSSGAFLSLKKVQKEPIPEEQEMDFRPVDEGEECSDSEGSHNEEAKEPDKTNKKEGEKTDRVGVEASEETPQTSSSSARPGTPSDHQSQEASQFERKDEPKTEQTEKAEEETRMENSLPAKVPSRGDEMVADVQQPLSQIPSDTASPLLILPPPVPNPSPTLRPVETPVVGAPGMGSVSTEPDDEEGLKHLEQQAEKMVAYLQDSALDDERLASKLQEHRAKGVSIPLMHEAMQKWYYKDPQGEIQGPFNNQEMAEWFQAGYFTMSLLVKRACDESFQPLGDIMKMWGRVPFSPGPAPPPHMGELDQERLTRQQELTALYQMQHLQYQQFLIQQQYAQVLAQQQKAALSSQQQQQLALLLQQFQTLKMRISDQNIIPSVTRSVSVPDTGSIWELQPTASQPTVWEGGSVWDLPLDTTTPGPALEQLQQLEKAKAAKLEQERREAEMRAKREEEERKRQEELRRQQEEILRRQQEEERKRREEEELARRKQEEALRRQREQEIALRRQREEEERQQQEEALRRLEERRREEEERRKQEELLRKQEEEAAKWAREEEEAQRRLEENRLRMEEEAARLRHEEEERKRKELEVQRQKELMRQRQQQQEALRRLQQQQQQQQLAQMKLPSSSTWGQQSNTTACQSQATLSLAEIQKLEEERERQLREEQRRQQRELMKALQQQQQQQQQKLSGWGNVSKPSGTTKSLLEIQQEEARQMQKQQQQQQQHQQPNRARNNTHSNLHTSIGNSVWGSINTGPPNQWASDLVSSIWSNADTKNSNMGFWDDAVKEVGPRNSTNKNKNNASLSKSVGVSNRQNKKVEEEEKLLKLFQGVNKAQDGFTQWCEQMLHALNTANNLDVPTFVSFLKEVESPYEVHDYIRAYLGDTSEAKEFAKQFLERRAKQKANQQRQQQQLPQQQQQQPPQQPPQQPQQQDSVWGMNHSTLHSVFQTNQSNNQQSNFEAVQSGKKKKKQKMVRADPSLLGFSVNASSERLNMGEIETLDDY"
